Reference: the supplement of paper PMC10928670

Columns and labels:
Assay in all cases: Agar dilution by CLSI M07.
[1] = compound: CN[C@@H]1[C@H](O)[C@H](NC)[C@H]2O[C@@]3(O)C(=O)C[C@@H](C)O[C@H]3O[C@@H]2[C@H]1O [spectinomycin]
[2] = compound: CC[C@H]1OC(=O)[C@H](C)[C@@H](O[C@H]2C[C@@](C)(OC)[C@@H](O)[C@H](C)O2)[C@H](C)[C@@H](O[C@@H]2O[C@H](C)C[C@H](N(C)C)[C@H]2O)[C@](C)(O)C[C@@H](C)CN(C)[C@H](C)[C@@H](O)[C@]1(C)O [azithromycin]
[3] = compound: CO/N=C(\C(=O)N[C@@H]1C(=O)N2C(C(=O)O)=C(CSc3nc(=O)c(O)nn3C)CS[C@H]12)c1csc(N)n1 [ceftriaxone]
[4] = compound: CC1(C)S[C@@H]2[C@H](NC(=O)Cc3ccccc3)C(=O)N2[C@H]1C(=O)O [penicillin G]
[5] = compound: C=CC1=C(C(=O)O)N2C(=O)[C@@H](NC(=O)/C(=N\OCC(=O)O)c3csc(N)n3)[C@H]2SC1 [cefixime]

Test System	MIC [1] [µg/mL]	MIC [2] [µg/mL]	MIC [3] [µg/mL]	MIC [4] [µg/mL]	MIC [5] [µg/mL]
Neisseria gonorrhoeae isolate 218 (GyrA: D95N, ParC: Wild type, mtrR: -35A Del, penA: Type II NonMosaic, A517G, ponA: L421P, porB: porB1a)	32	0.125	≤ 0.015	0.25	≤ 0.015
Neisseria gonorrhoeae isolate 219 (GyrA: Wild type, ParC: Wild type, mtrR: -35A Del, penA: Type XXII NonMosaic, A517G, ponA: L421P, porB: G120K, A121D)	16	0.5	0.03	2	≤ 0.015
Neisseria gonorrhoeae isolate 220 (GyrA: Wild type, ParC: Wild type, mtrR: G45D, penA: Type I NonMosaic, ponA: L421P, porB: G120N, A121D)	32	0.25	≤ 0.015	0.5	≤ 0.015
Neisseria gonorrhoeae isolate 221 (GyrA: Wild type, ParC: Wild type, mtrR: Wild type, penA: WT NonMosaic, ponA: Wild type, porB: G120D, A121D)	≤ 0.5	≤ 0.03	≤ 0.015	≤ 0.03	≤ 0.015
Neisseria gonorrhoeae isolate 222 (GyrA: Wild type, ParC: Wild type, mtrR: -35A Del, G45D, penA: Type XXII NonMosaic, A517G, ponA: L421P, porB: Wild type)	16	≤ 0.03	≤ 0.015	0.25	≤ 0.015
Neisseria gonorrhoeae isolate 223 (GyrA: S91F, ParC: Wild type, mtrR: G45D, penA: Type IV NonMosaic, A517G, G543S, ponA: L421P, porB: G120K, A121D)	16	0.125	0.03	1	0.03
Neisseria gonorrhoeae isolate 224 (GyrA: Wild type, ParC: Wild type, mtrR: -35A Del, penA: Type II NonMosaic, A517G, ponA: Wild type, porB: Wild type)	16	≤ 0.03	≤ 0.015	0.125	≤ 0.015
Neisseria gonorrhoeae isolate 225 (GyrA: Wild type, ParC: Wild type, mtrR: -35A Del, G45D, penA: Type IV NonMosaic, A517G, G543S, ponA: L421P, porB: G120K, A121D)	16	0.06	0.06	2	0.06
Neisseria gonorrhoeae isolate 226 (GyrA: Wild type, ParC: Wild type, mtrR: Wild type, penA: Type I NonMosaic, ponA: Wild type, porB: Wild type)	16	≤ 0.03	≤ 0.015	0.06	≤ 0.015
Neisseria gonorrhoeae isolate 227 (GyrA: Wild type, ParC: Wild type, mtrR: -35A Del, G45D, penA: Type 252 SemiMosaic, A517G, ponA: Wild type, porB: Wild type)	16	≤ 0.03	≤ 0.015	0.25	≤ 0.015
Neisseria gonorrhoeae isolate 228 (GyrA: Wild type, ParC: Wild type, mtrR: -35A Del, G45D, penA: Type IV NonMosaic, A517G, G543S, ponA: L421P, porB: G120K, A121D)	16	≤ 0.03	≤ 0.015	0.5	≤ 0.015
Neisseria gonorrhoeae isolate 229 (GyrA: S91F, D95N, ParC: S88P, mtrR: -35A Del, G45D, penA: Type X Mosaic, N513Y, ponA: L421P, porB: G120K, A121D)	32	0.5	0.25	2	0.5
Neisseria gonorrhoeae isolate 230 (GyrA: Wild type, ParC: Wild type, mtrR: G45D, penA: Type XXII NonMosaic, A517G, ponA: Wild type, porB: G120D)	16	0.25	0.03	0.5	0.03
Neisseria gonorrhoeae isolate 231 (GyrA: Wild type, ParC: Wild type, mtrR: G45D, penA: Type I NonMosaic, ponA: Wild type, porB: Wild type)	16	0.06	≤ 0.015	0.06	≤ 0.015
Neisseria gonorrhoeae isolate 232 (GyrA: Wild type, ParC: Wild type, mtrR: -35A Del, penA: Type IX NonMosaic, A517G, ponA: L421P, porB: Wild type)	16	0.25	≤ 0.015	1	≤ 0.015
Neisseria gonorrhoeae isolate 233 (GyrA: Wild type, ParC: Wild type, mtrR: -35A Del, G45D, penA: Type IX NonMosaic, A517G, ponA: L421P, porB: G120N, A121G)	32	1	0.06	1	0.03
Neisseria gonorrhoeae isolate 234 (GyrA: Wild type, ParC: Wild type, mtrR: -35A Del, G45D, penA: Type IV NonMosaic, A517G, G543S, ponA: L421P, porB: G120N, A121D)	16	0.5	0.03	4	0.03
Neisseria gonorrhoeae isolate 235 (GyrA: Wild type, ParC: Wild type, mtrR: -35A Del, G45D, penA: Type IV NonMosaic, A517G, G543S, ponA: L421P, porB: Wild type)	16	0.06	0.03	1	0.03
Neisseria gonorrhoeae isolate 236 (GyrA: Wild type, ParC: Wild type, mtrR: -35A Del, G45D, penA: Type XXII NonMosaic, A517G, ponA: L421P, porB: G120D)	32	≤ 0.03	≤ 0.015	0.125	≤ 0.015
Neisseria gonorrhoeae isolate 237 (GyrA: Wild type, ParC: Wild type, mtrR: A39T, penA: Type II NonMosaic, A517G, ponA: Wild type, porB: Wild type)	16	0.125	≤ 0.015	0.125	≤ 0.015
Neisseria gonorrhoeae isolate 238 (GyrA: Wild type, ParC: Wild type, mtrR: -35A Del, penA: Type XXII NonMosaic, A517G, ponA: L421P, porB: G120K, A121D)	16	0.25	0.03	> 64	0.03
Neisseria gonorrhoeae isolate 239 (GyrA: Wild type, ParC: Wild type, mtrR: -35A Del, G45D, penA: Type II NonMosaic, A517G, ponA: L421P, porB: G120K, A121N)	16	0.25	≤ 0.015	8	≤ 0.015
Neisseria gonorrhoeae isolate 240 (GyrA: Wild type, ParC: Wild type, mtrR: -35A Del, G45D, penA: Type I NonMosaic, ponA: Wild type, porB: G120D, A121D)	16	≤ 0.03	≤ 0.015	0.125	≤ 0.015
Neisseria gonorrhoeae isolate 241 (GyrA: Wild type, ParC: Wild type, mtrR: A39T, penA: Type XXII NonMosaic, A517G, ponA: Wild type, porB: Wild type)	16	0.06	≤ 0.015	0.125	≤ 0.015
Neisseria gonorrhoeae isolate 242 (GyrA: Wild type, ParC: Wild type, mtrR: -35A Del, A39T, penA: Type XXII NonMosaic, A517G, ponA: L421P, porB: G120D)	16	1	≤ 0.015	> 64	≤ 0.015
Neisseria gonorrhoeae isolate 243 (GyrA: S91F, D95G, ParC: Wild type, mtrR: -35A Del, penA: Type V Nonmosaic, A517G, G543S, ponA: L421P, porB: G120N, A121D)	32	0.5	≤ 0.015	2	≤ 0.015

MIC of N. gonorrhoeae strains collected 1971-2005, agar dilution (CLSI M07); ranges 0.03-64 mg/L (penicillin, azithromycin), 0.015-1 (cefixime, ceftriaxone), 0.5-256 (spectinomycin); higher = less susceptible. No active / inactive call per row; the paper counts cefixime and ceftriaxone above 0.25 and azithromycin above 1 mg/L as non-susceptible. The source says 'penicillin'; penicillin G is assumed. Isolates are numbered anew.
